# According to PubChem BioAssay AID2451 (National Center for Advancing Translational Sciences (NCATS), 2010):
# Several values for one entry are separate records, joined by “and”; a condition that tells them apart may be missing. Identical values can stand only once. Out of some 290,000 compounds screened, about 2,100 (0.72%) were called active. Inconclusive means that the source gave no clear call. Such entries were picked first, then a sample of the others. Calls come from the whole dose curve; as a rule, active = well fitted inhibition curve with a large enough effect; inconclusive = small, poorly fitted or top-dose-only effect, or effect the other way; inactive = flat fitted curve, though single readings scatter. Potencies beside an inconclusive call are fits to weak or partial responses and may not hold up. Some compounds were tested as several samples or in several runs, with calls that do not always agree.
# Biological target: Fructose-bisphosphate aldolase (Giardia intestinalis (strain ATCC 50803 / WB clone C6)) (UniProt A8B2U2)
# Test: qHTS Assay for Inhibitors of Fructose-1,6-bisphosphate Aldolase from Giardia Lamblia; note: nearly all actives have a fitted effect of over 55% in size
# Settings: purified Giardia FBPA; activity, negative = inhibition: at 59.6 µM (top of the series) unless noted
# From the text: Assay Provider: Osnat Herzberg, University of Maryland
# The objective of this project is to obtain compounds that inhibit Giardia lamblia growth. G. lamblia is a human pathogen which afflicts impoverished nations; it is the most common cause of outbreaks of diarrhea in the United States. During the course of our study of potential drug targets in Giardia, we have identified the Class II (Zn2+ functions in electrophilic catalysis) fructose-1,6-bisphosphate aldolase (FBPA) as an excellent candidate for drug targeting. FBPA is a key glycolytic pathway enzyme, essential for G. lamblia survival. The human FBPA belongs to the Class I aldolases, which have a different substrate binding site structure and a radically different catalytic mechanism (employing a lysine-Schiff base intermediate). Therefore, affinity-based or mechanism-based inhibitors of the Giardia FBPA are expected not to interfere with the catalytic function of the human FBPA.
# A glyceraldehyde-3-phosphate dehydrogenase/triose phosphate isomerase/NAD/arsenate coupled assay was adapted to the 1536-well HTP format for use in the primary screen. This was done by coupling it to a diaphorase/resazurin/resorufin reaction that can be monitored by fluorescence (excitation, 544 nm; emission, 590 nm). Compounds identified in this screen will be further evaluated by coupling the glycerol-3-phosphate/triose phosphate isomerase/NADH assay to a phenazine methosulfate/tetranitroblue tetrazolium color reaction. False positives due to the dehydrogenases and diaphorase inhibition will be eliminated, and selectivity assay will triage inhibitors of mammalian triose phosphate isomerase and the Class I FBPA. G. lamblia FBPA inhibitors identified by the in vitro analyses will be examined for growth inhibition of Giardia trophozoites, and for cytotoxicity in human cells.
# Step,Parameter,Value,Description
# 1,Enzyme reagent,2 uL,40 nM FBPA
# 2,Compound,23 nL,3.68 nM-57.5 uM final concentration
# 3,Time,10 min,RT Incubation
# 4,Substrate/detection Reagent,2 uL,Substrate + enzyme coupling system + AmpLite Red kit
# 5,Time,20 min,RT Incubation
# 6,Detector,525 nm/598 nm (Fluorescence),ViewLux Fluorescence Read (Read 1)
# 1,Medium-binding black solid-bottom Kalypsys plates. FRD or Kalypsys dispenser, 2 uL of FBPA enzyme. Bottle kept at 4C.
# 2,Compound Library (10 mM ,1:5 dilution). Pin-transferred for a [final] range of 3.68 nM-57.5 uM.
# 4,FRD or Kalypsys dispenser, 2 uL of reaction mixture. Bottle kept at 4C and covered in foil to protect from light.
# 6,ViewLux Protocol 1194; Excitation filter wheel A (525/20 Pol; BODIPY TMR FP), Emission filter wheel B (598/25 S; BODIPY TMR FP S).
# Keywords: Fructose-bisphosphate aldolase, FBPA , Giardia lamblia , Giardia, HTS, Inhibitors
# % is set by controls: 0 for no effect and ±100 for the full control effect; potency is the fitted concentration of half-maximal effect; tags give direction and shape of the fitted curve.
# Chain of UniProt A8B2U2 (A8B2U2 whole entry, looked up): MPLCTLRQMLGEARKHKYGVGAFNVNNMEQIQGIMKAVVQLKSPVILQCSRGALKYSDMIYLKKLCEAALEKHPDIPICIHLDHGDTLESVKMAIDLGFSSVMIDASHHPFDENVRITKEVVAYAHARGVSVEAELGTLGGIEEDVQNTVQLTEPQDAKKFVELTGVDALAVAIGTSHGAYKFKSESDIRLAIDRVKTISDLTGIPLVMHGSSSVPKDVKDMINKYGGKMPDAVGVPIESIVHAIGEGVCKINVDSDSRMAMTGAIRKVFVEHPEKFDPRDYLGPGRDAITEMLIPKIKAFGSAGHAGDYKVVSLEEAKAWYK
Compound,"activity, negative = inhibition",Potency
O=S(=O)(O)c1cccc(N=Nc2c(O)ccc3ccccc23)c1,inactive: 9.08%,
CCN(CC)C(=O)CSc1n[nH]c(=S)n1N,,active: 7.06 µM
CC(=O)Nc1ccc(N2C(=O)CSC2c2cccc([N+](=O)[O-])c2)cc1 (configuration not stated),inactive: 3.12%,
CC(C)(C)c1nnc(NS(=O)(=O)c2ccc([N+](=O)[O-])cc2)s1,,"inconclusive: 28.2 µM [inhibitor, single point]"
NC(CC(=O)Nc1ccc(Oc2cc(F)c(F)cc2Br)cc1)C(=O)O (configuration not stated),,"inconclusive: 17.7 µM [inhibitor, partial curve]"
O=C(O)CSCc1cn2cc(Cl)ccc2n1,,"inconclusive: 15.8 µM [inhibitor, single point]"
Cc1cc(-c2n[nH]c(=S)n2/N=C/c2ccc(C)o2)n[nH]1,,"inconclusive: 19.9 µM [inhibitor, partial curve]"
CC1C2(C)OC(=N)C(C#N)(C(C)O2)C1(C#N)C#N (configuration not stated),,"inconclusive: 17.7 µM [inhibitor, single point]"
O=[N+]([O-])c1cccc(/C=C2\CCC(/C=N/Nc3ccc4ccccc4n3)=C2N2CCOCC2)c1,inactive: 6.55%,
CCCc1cc(=O)n2[nH]c(CCc3ccccc3)nc2n1,,"inconclusive: 17.7 µM [inhibitor, partial curve]"
O=C(Oc1ccc(/C=N/Nc2ccccc2)cc1)c1ccccc1,inactive: -0.421%,
CCC(C)(C)NC(=O)C(c1ccc(C)cc1)N(Cc1ccco1)C(=O)CCC(=O)Nc1nccs1 (configuration not stated),inactive: 4.41%,
O=C(CCc1ccccc1)NNC(=S)NC(=O)c1ccc(Cl)cc1,,"inconclusive: 15.8 µM [activator, single point]"
CCc1nnc(NC(=O)COc2ccc(N(C)S(=O)(=O)c3ccc(C)cc3)cc2)s1,inactive: 0.197%,
CCN=c1scc(C)n1/N=C/c1cc(Br)c(O)c(OC)c1,,"inconclusive: 15.8 µM [inhibitor, partial curve]"
C=CCn1c(=O)c2c(nc(-n3nc(C)cc3C)n2C)n(C)c1=O,inactive: 3.53%,
Cc1cc(C)nc(-n2nc(C)c3c(C(=O)O)cc(-c4cccc(Br)c4)nc32)n1,,"inconclusive: 11.2 µM [inhibitor, partial curve]"
COc1cc(C(=O)Nc2cccc(S(=O)(=O)N3CCCC3)c2)cc(OC)c1C,,"inconclusive: 17.7 µM [inhibitor, single point]"
CN(CCOc1cccc2ccccc12)Cc1ccccc1,,"inconclusive: 28.2 µM [inhibitor, single point]"
O=C(N/N=C/c1c(O)n(Cc2ccco2)c(=O)[nH]c1=O)c1ccccc1O,,"inconclusive: 19.9 µM [activator, single point]"
Cc1cccnc1Sc1c([N+](=O)[O-])ncn1C,inactive: -7.25%,
c1ccc(Cc2nnc3n2N=C(c2ccccc2)CS3)cc1,,"inconclusive: 15.8 µM [inhibitor, partial curve]"
O=C(NNS(=O)(=O)c1ccc(Cl)cc1)c1cc(-c2ccccc2)nc2ccccc12,inactive: 8.49%,
Cc1ccc(/C=N/n2cc(-c3ccccc3)[nH]c2=S)s1,inactive: 2.49%,

Compound,"activity, negative = inhibition",Potency
O=C1CCCC2=C1C(c1ccc3c(c1)OCO3)c1c([nH]n(-c3ccccc3)c1=O)N2 (configuration not stated),,"inconclusive: 17.7 µM [inhibitor, single point]"
C=CCNC(=S)N1CCN(Cc2ccccc2)CC1,,active: 17.7 µM
Fc1ccc(CNCc2ccccc2Cl)cc1,,"inconclusive: 9.98 µM [inhibitor, partial curve]"
O=C(Cn1nnc2ccccc21)OCC(=O)c1ccccc1,inactive: -4.15%,
CCN(CC)CCN(C(=O)c1cc2ccccc2cc1OC)c1nc2ccc(F)cc2s1,,"inconclusive: 22.4 µM [inhibitor, partial curve]"
CCOC(=O)c1c(CN2CCOCC2)n(C)c2cc(Br)c(O)c(CN(C)C)c12,,"inconclusive: 14.1 µM [inhibitor, partial curve] and inconclusive: 31.5 µM [inhibitor, single point]"
CN(C)CC(=O)Nc1ccc2cn[nH]c2c1,inactive: 1.33%,
CN1CCN(c2ccc([N+](=O)[O-])c3no[n+]([O-])c23)CC1,,"inconclusive: 12.6 µM [inhibitor, partial curve]"
Oc1cccc(C=Nc2cccc3ccccc23)c1O,,"inconclusive: 25.1 µM [inhibitor, partial curve]"
OC(COc1ccccc1)CN1CCCC1 (configuration not stated),,"inconclusive: 19.9 µM [inhibitor, partial curve]"
COc1cc2c(cc1OC)C(C)N(C(=O)c1cc3n(n1)C(C(F)(F)F)CC(c1ccco1)N3)CC2 (configuration not stated),,"inconclusive: 31.5 µM [inhibitor, single point]"
COc1ccccc1N1C(=O)S/C(=C\c2ccc(C)s2)C1=O,inconclusive: 51.2% [activator],
O=C1CN(S(=O)(=O)c2ccc(F)cc2)c2ccccc2N1,inactive: 5.11%,
Cc1cnc(C(=O)Nc2ccc(C(=O)N3CCCCC3)cc2)cn1,inactive: -0.0269%,
Cc1ccc(S(=O)(=O)Nc2ccccc2C(=O)N2CCCCCC2)cc1,inactive: 0.454%,
CCOc1ccccc1C(=O)N[C@H](C(=O)OCc1cc([N+](=O)[O-])cc2c1OCOC2)C(C)C,inactive: 0.0121%,
COc1ccc(-c2cccc(C(=O)Nc3ccc(OC)c(OC)c3)c2)cc1,inactive: -1.52%,
CC(=O)Nc1ccc(Oc2ccc(NC(C)=O)c(NC(C)=O)c2)cc1,,"inconclusive: 11.2 µM [inhibitor, partial curve]"
O=C(Nc1ccc(N2CCOCC2)c(Cl)c1)c1ccc(Cl)cc1,,active: 15.8 µM
Cc1nc(C(=O)NNC(=O)c2ccc(C(F)(F)F)cc2)cs1,,"inconclusive: 17.7 µM [inhibitor, single point]"
O=C(NC(=S)NCc1cccnc1)c1ccccc1,inactive: 1.05%,
O=C(N/N=C/C=C/c1ccco1)c1cccs1,,"inconclusive: 17.7 µM [inhibitor, partial curve]"
CC1CN(CCOc2ccccc2[N+](=O)[O-])CC(C)O1 (configuration not stated),,"inconclusive: 17.7 µM [inhibitor, partial curve]"
CCOCCCn1cc(C(=O)c2cc(Br)ccc2O)cc(C#N)c1=O,inactive: 7.88%,

Compound,"activity, negative = inhibition",Potency
Cc1cccc(NC(=O)NCc2ccc3[nH]c(C)cc3c2)c1,inactive: -8.5%,
Cn1c(SCc2ccc(C#N)cc2Cl)nc2ccccc21,inactive: -25.1%,
N#C/C(=N\Nc1ccc(S(=O)(=O)N2CCOCC2)cc1)C(N)=S,,"inconclusive: 7.06 µM [inhibitor, partial curve]"
C[n+]1cc2c3c(ccc2c2ccc4cc5c(cc4c21)OCO5)OCO3,,active: 2.51 µM and active: 6.29 µM
COc1cc(CN2CCN(Cc3ccc([N+](=O)[O-])cc3)CC2)c([N+](=O)[O-])cc1OC,,active: 12.6 µM
CCNC(=O)C1CCCN1C(=O)C(CCCN=C(N)N)NC(=O)C(CC(C)C)NC(=O)C(Cc1cn(Cc2ccccc2)cn1)NC(=O)C(Cc1ccc(O)cc1)NC(=O)C(CO)NC(=O)C(Cc1c[nH]c2ccccc12)NC(=O)C(Cc1cnc[nH]1)NC(=O)C1CCC(=O)N1 (configuration not stated),,active: 10 µM
Cc1ccc(S(=O)(=O)C(C#N)c2nc3ccccc3nc2N2CCCC2)cc1C (configuration not stated),,"inconclusive: 8.91 µM [inhibitor, partial curve]"
COc1ccc(C2C(C#N)=C(N)Oc3c2oc(CO)cc3=O)cc1 (configuration not stated),,"inconclusive: 15.8 µM [inhibitor, single point]"
O=c1nc(/C=C/c2cccn2-c2ccc([N+](=O)[O-])cc2)cc(C(F)(F)F)[nH]1,,"inconclusive: 19.9 µM [inhibitor, single point]"
CCOc1ccccc1CNc1ccc(O)cc1,,active: 11.2 µM
CN(C)c1ccc(-c2cc(Nc3ccc(F)cc3)ncn2)cc1,,"inconclusive: 19.9 µM [inhibitor, partial curve]"
O=C(Nc1nnc(-c2ccco2)o1)c1ccc([N+](=O)[O-])s1,,"inconclusive: 17.7 µM [inhibitor, single point]"
O=C(N/N=C/c1c(O)n(Cc2ccccc2)c(=O)[nH]c1=O)c1ccccc1O,,"inconclusive: 3.97 µM [activator, full curve]"
O=[N+]([O-])c1ccccc1/C=C/CN1CCN(Cc2ccc3c(c2)OCO3)CC1,,active: 11.2 µM
CN(C)N=Nc1ccc2nc[nH]c2c1,,"inconclusive: 7.92 µM [inhibitor, partial curve]"
Cc1ccc(C(=O)c2c3ccc(N)cc3nn2CCC(N)=O)cc1,,"inconclusive: 6.31 µM [inhibitor, partial curve]"
O=C(O)CC12CSc3[nH]c(=O)sc3C1c1ccccc1OC2=O (configuration not stated),,"inconclusive: 9.98 µM [inhibitor, partial curve]"
CN(C)C(=S)SC(=S)N(C)C,,active: 15.8 µM
Nc1ccc(-c2n[nH]c(=O)c3ccccc23)cc1N,,"inconclusive: 11.2 µM [inhibitor, partial curve]"
CCOc1ccc(C2/C(=C(/O)c3ccc(OC)cc3)C(=O)C(=O)N2c2cc(C)on2)cc1OC (configuration not stated),,"inconclusive: 17.7 µM [activator, single point]"
O=C1CCCC2=C1C1O[C@](c3ccsc3)(Cc3c1ccc1ccccc31)O2,inactive: 14.8% [at 12.9 µM],
COc1ccc2cc(CN(CCCN3CCOCC3)Cc3nnnn3C3CCCC3)c(=O)[nH]c2c1,,"inconclusive: 6.29 µM [inhibitor, partial curve]"
COC(=O)c1cc(-c2ccc(OC)cc2)nc2nc(SC)[nH]c(=O)c12,,"inconclusive: 31.6 µM [inhibitor, single point]"
O=C(O)CSCC(=O)Nc1ccc(Br)c(C(F)(F)F)c1,,"inconclusive: 17.7 µM [activator, single point]"
